The text below walks through data of the supplement of paper PMC10126150.

Values marked as one replicate rest on one cluster of the flow cell; about a third of the high ones do not repeat.
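Further: ATP exposure 15 min at 22 °C before imaging.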

The test system of this data set is ATP. Nature of the data set: switch fluorescence ratio, 500 uM ATP over buffer (Cy3 cluster intensity, sum of 5 cycles each) (fold (ratio)); higher = stronger signal-on switching upon ATP binding; sequences stand for … in TCGTCGGCAGCGTCAGATGTGTATAAGAGACAGTTTTTTTTTTTTTTTTTTTTTTTTT…TC. The following applies: aptamer strand: ATP DNA aptamer (quencher-CACCTGGGGGAGTATTGCGGAGGAAGG + anchor), 100 nM annealed; ATP concentration: 500 uM; one replicate. In a few lines: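 Imaging in selection buffer was followed by imaging after 15 min with 500 uM ATP at 22 °C, for Cy3-labelled switching-strand clusters annealed to 100 nM quencher-labelled ATP aptamer on a modified Illumina MiSeq flow-cell. Five of these buffer/ATP cycles ran, separated by NaOH stripping and re-annealing. The fluorescence ratio per cluster is summed target-cycle over summed buffer-cycle Cy3 intensity, averaged per switch-domain sequence; clusters outside 100-1000 RFU were removed.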
For TGCACAATTT, the switch fluorescence ratio worked out at 1.02.
To AAGGGCCTGA belongs 1.01; to CACTAATAAA, 1.02; to TACGGTGATA, 0.995.
In the case of AAGCGATCAT it was 0.941.
As to AGTTTGCTGA, the switch fluorescence ratio came out at 0.998.
To CATGAAAACG belongs 0.935.
In the case of TGGTTCTATA it was 0.974; in that of AGGGCCACT, 1.01.
To AGGGAGGGGC belongs 1.03.
Regarding GTCAAAGTCT, the switch fluorescence ratio turned out to be 1.02.
In the case of TTGCCTTT it was 0.965; in that of AACCTAGATC, 1.01.
To GCTGACGCTA belongs 2.27; to AATGTCTAAC, 0.975.
In the case of CACCAAAACG it was 1.06.
On to ACCGCATCGG, for which the switch fluorescence ratio was 1.04.
With GAAGCCCGTG, the switch fluorescence ratio was 0.987.
To TCAGGGGG belongs 0.957; to AACCTGGTAC, 1.2.
To ATTTGAAGGG belongs 0.999; to AAGGTCATC, 1.02; to TTTTTGCG, 1.02.
In the case of GTGATGGCTG it was 0.9; in that of TCTAGGGAGG, 1.02; in that of AGGGATACTA, 1.04.
For TGAGTAAGT, the switch fluorescence ratio came to 1.02.
ATCTGTTACA: the switch fluorescence ratio worked out at 1.01.
To CATCAGTGAC belongs 1.21; to AAATGATAGT, 1; to GGGGTTTT, 1.
On to CGGTAGCAG, for which the switch fluorescence ratio is 1.
In the case of GGGAACAGCG it was 0.981; in that of CTAATATGGC, 0.955.
In the case of CGCTAATTAT it was 1.13; in that of TTTGAACGAA, 1.01; in that of AAATGACAAA, 1.02.
To CTTATGCTCA belongs 0.996; to GCTGGAGGCG, 0.981.
Take ATGGCAGTCG: the switch fluorescence ratio was 0.975.
On to GTATGGAGGA, for which the switch fluorescence ratio was 0.977.
To TGCGGACACA belongs 0.953; to AAGAGTATGT, 1.04.
In the case of ATTCTTTGAG it was 1.03; in that of TAAGTTTCTA, 0.971; in that of AAAGGCTAGG, 1.01.
Consider CCGTGCCCAG, for which the switch fluorescence ratio was 1.91.
In the case of CTGACAACAT it was 1.23; in that of ATAAGCTTTA, 0.97; in that of GGTCGCAGAG, 1.
Regarding AATGCGACGT, the switch fluorescence ratio was determined as 1.01.
In the case of GCTAGTAGGT it was 1.
In the case of TAACTGTGGC it was 1; in that of CTAATACTTT, 0.977; in that of CTTGTGATGC, 1.63.
To TGTGTTTCGC belongs 0.955; to CTCAACATTT, 0.975; to CAGCACAAAA, 1.01.
For ACATTGATTT, the switch fluorescence ratio was 1.01.
To CACTGACTC belongs 1.32; to CTGTAACGGG, 1.04; to ACGATACGTA, 0.954.
To AGTCCGATAG belongs 1.07; to CTTAACTGTC, 1.02; to CTATACAGGG, 1.03.
In the case of TGAAGAAGAG it was 1.04; in that of TATTAGACG, 1.03.
For TCTGTTCTTC, the switch fluorescence ratio was 1.02.
In the case of AATTTGATAT, the switch fluorescence ratio is 0.967.
To CCCGGAACTT belongs 1.01.
In the case of ATTACATGAG it was 1.04.
To ATGTAAGGGC belongs 1.15; to GGTTCGATGT, 1; to CGTACTAGGC, 1.03.
Take ATGGGATGAA: the switch fluorescence ratio is 0.995.
To GACGACAGAC belongs 2.31; to CGGTCTGCGG, 0.956; to CGCAACAGGA, 1.35.
Consider AATGAATACT, for which the switch fluorescence ratio amounted to 1.07.
